In the RNAGym collection of RNA variant scans (doi:10.1093/nar/gkz1192):
Read counts are not given, so values of variants with three or more changes are uncertain.

B1: CPEB3 Ribozyme (parent)
chain: UAACAGGGGGCCACAGCAGAAGCGUUCACGUCGCAGCCCCUGUCAGAUUCUGGUGAAUCUGCGAAUUCUGCUGUAUAUCUC

Variants of: B1
Experiment: self-cleavage, relative activity (ratio to wild type); higher = more cleavage; in vitro, sequencing
Procedure, shortened: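 Relative activity compares each variant's cleaved/total read fraction with that of the unmutated ribozyme. To get these fractions, barcoded CPEB3 ribozyme libraries from rounds of error-prone PCR were transcribed with T7 RNA polymerase for 5 hours at 37°C and then given 15 min of DNase I treatment before EDTA was added. The RNAs were reverse transcribed with template switching and sequenced on Illumina, and DNA sequencing linked barcodes to variants. A minimum of 5 reads applied, and three batches were averaged.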

Variant	self-cleavage
UAACAGGGGGCCACAGCUGAAGCGUCCACGUCGCAGCCCCUGUCAGAUUCUGGUGAAUCUGCGAAUUCGGCUGUAUAUCUC [A18U U26C U69G]	0.6
UAACAGGGGGCCACAGCUGAAGCGUCCACGUCGCAGCCCCUGUCAGAUUCUGGUGAAUCUGCGAAUUCUGCCGUAUAUCUC [A18U U26C U72C]	0.46
UAACAGGGGGCCACAGCUGAAGCGUCCACGUCGCAGCCCCUGUCAGAUUCUGGUGAAUCUGCGAAUUCUGCUGCAUAUCUC [A18U U26C U74C]	0.44
UAACAGGGGGCCACAGCUGAAGCGUGCACGUCGCAGCCCCUGUCAGAUUCUGGGGAAUCUGCGAAUUCUGCCGCAUAUCUC [A18U U26G U54G U72C U74C]	0.23
UAACAGGGGGCCACAGCUGAAGCGUUCACGACGCGGCCCCUGUCAGAUUCUCGUGAACCUGCGAAUCCUGCUGUAUGUCUC [A18U U31A A35G G52C U58C U67C A77G]	0.49
UAACAGGGGGCCACAGCUGAAGCGUUCACGACGCAGCCCCUGUCAGAUUCUGGUGAAUCUGCGAAUUCUGGUGUAUAUCUC [A18U U31A C71G]	0.11
UAACAGGGGGCCACAGCUGAAGCGUUCACGCCGCAGCCCCUGUCGGAUUCUGGUGAAUCCGCGAAUUCUGCAAUAUAUCUC [A18U U31C A45G U60C U72A G73A]	0.18
UAACAGGGGGCCACAGCUGAAGCGUUCACGCCGCAGCCCCUGUCUGAUUCUGGUGAAUCUGCGAAUUCUGCUGUAUAUCUC [A18U U31C A45U]	0.23
UAACAGGGGGCCACAGCUGAAGCGUUCACGCCGCAGCCCCUGUCAGAUUCUGGUGAAUCUGCGGAUUCUGCUGUAUAUCUC [A18U U31C A64G]	0.19
UAACAGGGGGCCACAGCUGAAGCGUUCACGCCGCAGCCCCUGUUAGAUUCUGGUGAAUCCGCGAAUUCUGCUGUAUAUCUC [A18U U31C C44U U60C]	0.06
UAACAGGGGGCCACAGCUGAAGCGUUCACGCCGCAGCCCCAGUCAGAUUCUGGUGAAUCUGCGAAUUCUGCUGUAUAUCUC [A18U U31C U41A]	0.17
UAACAGGGGGCCACAGCUGAAGCGUUCACGCCGCAGCCCCCGUCAGAUUCUGGUGAAUCUGCGUAUACUGCUGUUUAUCUC [A18U U31C U41C A64U U67A A75U]	0.12
UAACAGGGGGCCACAGCUGAAGCGUUCACGCCGCAGCCCCUGUCAGAUUCUGGUGAAUCUGCGAAUACUGCUGUAUAUCUC [A18U U31C U67A]	0.18
UAACAGGGGGCCACAGCUGAAGCGUUCACGCCGCAGCCCCUGUCAGAUUCUGGUGAAUCUGCGAAUUCCGCUGUAUAUCUC [A18U U31C U69C]	0.2
UAACAGGGGGCCACAGCUGAAGCGUUCACGCCGCAGCCCCUGUCAGAUUCUGGUGAAUCUGCGAAUUCUGCUGUAAAUCUC [A18U U31C U76A]	0.15
UAACAGGGGGCCACAGCUGAAGCGUUCACGGCGCAGCCCCAGUCAGAUUCUGGUGAAUCUGCGAAUUCUGCUGUAUAUCUC [A18U U31G U41A]	0.07
UAACAGGGGGCCACAGCUGAAGCGUUCACGUCGCAGCCCCCGUCAGAUUCUGGUGAAUCUGCGAAUUCUGCUGUAUGUCUC [A18U U41C A77G]	0.42

Variant	self-cleavage
UAACAGGGGGCCACAGCUGAAGCGUUCACGUCGCAGCCCCCGCCAGGUUCUGGUGAAUCUGUGAGUUCUGCUGUAUAUCCC [A18U U41C U43C A47G C62U A65G U80C]	0.1
UAACAGGGGGCCACAGCUGAAGCGUUCACGUCGCAGCCCCUGCCAGAUUCUGGUGGAUCUGCGAAUUCUGCUGUAUAUCUC [A18U U43C A56G]	0.18
UAACAGGGGGCCACAGCUGAAGCGUUCACGUCGCAGCCCCUGCCAGAUUCCGGUGAAUCUGCGUAUUCUGCUGUAUAUCUC [A18U U43C U51C A64U]	0.13
UAACAGGGGGCCACAGCUGAAGCGUUCACGUCGCAGCCCCUGCCAGAUUCUGGUGAAUCUGCGAAUUCUGCUGUAAAUCUC [A18U U43C U76A]	0.14
UAACAGGGGGCCACAGCUGAAGCGUUCACGUCGCAGCCCCUGCCAGAUUCUGGUGAAUCUGCGAAUUCUGCUGUAUAUCAC [A18U U43C U80A]	0.25
UAACAGGGGGCCACAGCUGAAGCGUUCACGUCGCAGCCCCUGUCAGAAUCUGGUAAAUCUGCGGAUUCUGCUGUAUAUCUC [A18U U48A G55A A64G]	0.04
UAACAGGGGGCCACAGCUGAAGCGUUCACGUCGCAGCCCCUGUCAGACUCUGGAGAAUCUGCGAAUUCUGCUGUAUAUCUC [A18U U48C U54A]	0.33
UAACAGGGGGCCACAGCUGAAGCGUUCACGUCGCAGCCCCUGUCAGACUCUGGUGAAUCUGCGAAUUCCGCUGUAUAUCUC [A18U U48C U69C]	0.18
UAACAGGGGGCCACAGCUGAAGCGUUCACGUCGCAGCCCCUGUCAGACUCUGGUGAAUCUGCGAAUUCUGCUGUAUAUCCC [A18U U48C U80C]	0.35
UAACAGGGGGCCACAGCUGAAGCGUUCACGUCGCAGCCCCUGUCAGAUACUGGUGUAUCUGCGAAUUCAGCUGUAUAUCUC [A18U U49A A56U U69A]	1.23
UAACAGGGGGCCACAGCUGAAGCGUUCACGUCGCAGCCCCUGUCAGAUACUGGUGUAUCUGCGAAUUCUGCCGUAUAUCUC [A18U U49A A56U U72C]	0.24
UAACAGGGGGCCACAGCUGAAGCGUUCACGUCGCAGCCCCUGUCAGAUCCUGGUGAAUCUGCGAGUUCUGCUGUAUAUCUC [A18U U49C A65G]	0.18
UAACAGGGGGCCACAGCUGAAGCGUUCACGUCGCAGCCCCUGUCAGAUCCUGGUGAAUCUGCGAAUUCUGCUGUAUACCUC [A18U U49C U78C]	0.15
UAACAGGGGGCCACAGCUGAAGCGUUCACGUCGCAGCCCCUGUCAGAUUCUGGCGAAUCUGCGAAUUCUGCUGUAUAUUUC [A18U U54C C79U]	0.23
UAACAGGGGGCCACAGCUGAAGCGUUCACGUCGCAGCCCCUGUCAGAUUCUGGUGAACCUGCGAAUUCAGCUGUAUAUCUC [A18U U58C U69A]	0.47
UAACAGGGGGCCACAGCUGAAGCGUUCACGUCGCAGCCCCUGUCAGAUUCUGGUGAACCUGCGAAUUCUGCCGUAUAUCUC [A18U U58C U72C]	0.23
UAACAGGGGGCCACAGCUGAAGCGUUCACGUCGCAGCCCCUGUCAGAUUCUGGUGAAUCAGCGAAUUCUGCUGUGUAUCUC [A18U U60A A75G]	0.3
